The text below walks through data of article PMC4336329 (PLoS ONE, 2015).

In all, about 310,000 compounds went through this assay and about 14,000 (4.5%) showed an effect of 50% or more. The effect is printed as a negative number. The list shows a part of the results.
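Note: peak tail current of the secondary pulse compared with the same well before compound.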

In the assay the target is human ether-à-go-go-related gene (hERG) potassium channel (human, UniProt Q12809). The experiment in a line: primary screen, population patch clamp on CHO cells stably expressing hERG.
Sequence of human ether-à-go-go-related gene (hERG) potassium channel (Q12809 whole entry, looked up): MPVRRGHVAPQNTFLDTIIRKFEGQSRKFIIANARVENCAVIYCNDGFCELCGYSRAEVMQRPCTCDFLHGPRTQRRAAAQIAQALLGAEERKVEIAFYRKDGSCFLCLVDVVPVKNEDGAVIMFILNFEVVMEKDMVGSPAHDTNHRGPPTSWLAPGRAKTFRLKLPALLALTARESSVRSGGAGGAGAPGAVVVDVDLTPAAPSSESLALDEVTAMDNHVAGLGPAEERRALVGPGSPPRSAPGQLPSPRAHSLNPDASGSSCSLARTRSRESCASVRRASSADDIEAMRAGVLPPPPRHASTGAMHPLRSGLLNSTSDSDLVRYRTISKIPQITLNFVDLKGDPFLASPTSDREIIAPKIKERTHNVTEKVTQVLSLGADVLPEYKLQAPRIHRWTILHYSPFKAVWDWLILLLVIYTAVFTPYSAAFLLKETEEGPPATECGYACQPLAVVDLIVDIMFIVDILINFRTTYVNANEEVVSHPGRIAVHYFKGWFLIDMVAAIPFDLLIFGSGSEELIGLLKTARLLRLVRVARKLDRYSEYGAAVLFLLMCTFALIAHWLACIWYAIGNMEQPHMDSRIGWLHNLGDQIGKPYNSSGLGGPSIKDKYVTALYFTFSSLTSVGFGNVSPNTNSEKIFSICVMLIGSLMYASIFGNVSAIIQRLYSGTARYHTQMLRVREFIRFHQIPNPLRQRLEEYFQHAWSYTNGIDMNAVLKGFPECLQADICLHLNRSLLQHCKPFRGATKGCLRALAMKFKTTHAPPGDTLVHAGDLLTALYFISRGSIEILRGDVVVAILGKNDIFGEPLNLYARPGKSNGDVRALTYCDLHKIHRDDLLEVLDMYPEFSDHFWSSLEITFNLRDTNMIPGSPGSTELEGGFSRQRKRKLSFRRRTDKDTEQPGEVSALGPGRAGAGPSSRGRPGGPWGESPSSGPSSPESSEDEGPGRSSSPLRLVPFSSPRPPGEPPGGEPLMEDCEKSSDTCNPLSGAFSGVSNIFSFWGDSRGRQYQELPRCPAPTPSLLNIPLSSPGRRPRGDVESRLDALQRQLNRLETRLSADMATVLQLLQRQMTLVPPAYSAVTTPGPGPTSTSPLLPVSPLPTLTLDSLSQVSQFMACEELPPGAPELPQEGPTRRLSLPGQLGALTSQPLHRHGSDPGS
As to `CC(C)c1ccc(C(C)NC(=S)NC2CCCCC2)cc1` (stereo not drawn), the “hERG current change (%, negative = inhibition) at 10uM” value was 8.11%. With `Cc1ccc(CC(=O)Nc2ccccc2-c2ccccc2)cc1C`, the “hERG current change (%, negative = inhibition) at 10uM” value is recorded as -2.7%.

As for `CCOc1ccc(/C=N/NC(=O)C2CCCC2)c(OCC)c1`, the “hERG current change (%, negative = inhibition) at 10uM” value was -24.2%. For the compound `N#Cc1cnc2c(-c3ccccc3)c(-c3ccccc3)nn2c1N`, the “hERG current change (%, negative = inhibition) at 10uM” value is recorded as -1.89%. `COc1ccccc1Oc1ccc2c(c1)C(=O)N(c1cccc(O)c1)C2=O`: the “hERG current change (%, negative = inhibition) at 10uM” value is recorded as 21.8%. Consider `CC(C)c1ccc2c(c1)c(SC(C)(C)C)c(CC(C)(C)C(=O)[O-])n2Cc1ccc(Cl)cc1.[Na+]`, for which the “hERG current change (%, negative = inhibition) at 10uM” value is reported as -8.58%.

For the compound `O=C(c1ccc(Cl)cc1)N1CCCC(c2ccccc2)=N1`, the “hERG current change (%, negative = inhibition) at 10uM” value is on record as -4.76%. Next, `CCN(CC)S(=O)(=O)c1cccc(-c2nnc(SCC#N)n2Cc2ccccc2)c1`: -25.5%; `CCC1(c2ccccc2)NC(=O)N(CC(=O)NCc2ccccc2OC)C1=O` (stereo not drawn): 18.1%; `O=C(NC1CCCCC1)C(c1ccccc1)N(C(=O)c1cccs1)c1ccc2c(c1)OCO2` (stereo not drawn): 5.99%. In the case of `CCCCOc1ccccc1C1NC(=O)NC(C)=C1C(=O)OCCOC` (stereo not drawn), the “hERG current change (%, negative = inhibition) at 10uM” value was -5.16%. Next, `O=C1c2ccccc2C(Nc2ccc(-c3nc4ccccc4[nH]3)cc2)N1Cc1ccco1` (stereo not drawn): -33.3%; `CCCc1c(O)nc(SCC(=O)N2CCCCC2)[nH]c1=O`: 24.6%. For `Cn1c[n+](C)cc1/C=N/O.[I-]` the value was 24.1%; for `Cc1ccc(S(=O)(=O)Nc2cc(C(=O)NCCN(C)C)ccc2N2CCCC2)cc1`, -6.83%; for `CC(C)Cc1nnc(NC(=O)CCC(=O)NC2CCCCCCC2)s1`, 15.1%. Regarding `CCC/C(=N\NC(=O)c1cccc(C)c1)c1ccccc1`, the “hERG current change (%, negative = inhibition) at 10uM” value is given as 2.17%.

On to `Cn1c(=O)c2c(nc(N/N=C/c3ccco3)n2C)n(C)c1=O`, for which the “hERG current change (%, negative = inhibition) at 10uM” value is recorded as -3.97%. Next, `CC(NC(=O)c1cc(-c2ccc3c(c2)OCO3)nc2ccccc12)C(C)(C)C.Cl` (stereo not drawn): -19.4%; `CC12CCC(C(=O)N(CSC(=S)N/N=C\c3ccccc3O)C1=O)C2(C)C` (stereo not drawn): 10.8%; `Cc1oc(-c2ccc(Cl)cc2)nc1CN1CCCC(C(=O)N2CCOCC2)C1` (stereo not drawn): -53.8%. Next, `O=C(COC(=O)c1cccc(N2C(=O)c3ccccc3C2=O)c1)Nc1ccccc1`: 11.8%; `CC1(C(=O)O)Oc2cccnc2NC1=O` (stereo not drawn): 13.9%.

In the case of `CNC(=O)Oc1ccc2c(c1)[C@]1(C)CCN(C)[C@@H]1N2C.O=C(O)c1ccccc1O`, the “hERG current change (%, negative = inhibition) at 10uM” value came out at 10.7%.

Regarding `COc1cc(NC(=O)COC(=O)CNC(=O)c2cc(C)cc(C)c2)c(C)cc1[N+](=O)[O-]`, the “hERG current change (%, negative = inhibition) at 10uM” value is given as -17.3%. For `COc1ccc(NC(=O)CN(C)C(=O)CNC(=O)c2ccc3c(c2)OCO3)cc1` the value was -3.88%; for `Cc1ccc(C(=O)N2CCCC(c3ccc(Cl)cc3)=N2)cc1`, 5.68%; for `COC(=O)c1cc(-c2cccs2)nn1-c1ccccc1`, -11.7%. Next, `COc1ccc(C(CNc2ccc(S(C)(=O)=O)cc2[N+](=O)[O-])N(C)C)cc1OC` (stereo not drawn): -27%; `N#CCCn1cc(C(=O)Nc2ccc(C(=O)O)cc2)c(-c2cccs2)n1`: 21%; `Cc1ccc(C2=NOC3(CC(=O)N(c4ccccc4)C3=O)C2)cc1` (stereo not drawn): 21.4%.

On to `COc1ccc(C(=O)Nc2cc(OC)cc3cccnc23)cc1`, for which the “hERG current change (%, negative = inhibition) at 10uM” value turned out to be 17.1%. For `CCOc1ccccc1NC(=O)COC(=O)C1CC(=O)N(c2c(C)cccc2C)C1` (stereo not drawn) the value was -7.94%; for `Cc1ccc(N(CC(=O)N2CC(=O)Nc3ccccc32)S(=O)(=O)c2ccc3c(c2)OCCO3)cc1`, -2.7%; for `Cl.c1ccc(CN2CCC3(CCCc4ccccc43)CC2)cc1`, -69.6%. Next, `Cn1c(OCc2cccnc2)nc2c1c(=O)n(Cc1ccc(Cl)cc1)c(=O)n2C`: -51.1%.

For the compound `CCOC(=O)N1CCC(=NNc2nc(C)cc(=O)[nH]2)CC1`, the “hERG current change (%, negative = inhibition) at 10uM” value turned out to be 38.3%.

For the compound `Cc1ccc(Nc2nc(Nc3ccc(C)cc3)nc(SC3=NCCS3)n2)cc1`, the “hERG current change (%, negative = inhibition) at 10uM” value is recorded as -6.64%.

With `COc1ccc(C(=O)N(Cc2ccco2)C(C(=O)NC2CCCC2)c2ccc(O)cc2)cc1OC` (stereo not drawn), the “hERG current change (%, negative = inhibition) at 10uM” value was -10.9%.

For the compound `CCn1nc(C(=O)NCCc2ccc(S(N)(=O)=O)cc2)c2ccccc2c1=O`, the “hERG current change (%, negative = inhibition) at 10uM” value was -7.2%. Next, `CCOc1ccc2nc(NS(=O)(=O)Cc3ccccc3)sc2c1`: 9.15%; `Cc1ccc(-c2nc(CS(=O)CC(=O)NC3CCCCC3)c(C)o2)cc1` (stereo not drawn): -0.178%. For `O=C(CSc1nnc(C2CC2)n1Cc1ccccc1)NCc1ccccc1` the value was -9.9%; for `CCOC(=O)c1c(C)n(C)c2ccc(OC)c(NC(=O)CN3CCN(C4CCCCC4)CC3)c12`, -16.8%. Consider `CCOc1ccc(NC(=O)CN(C)C(=O)c2ccccc2-n2cnnn2)cc1OCC`, for which the “hERG current change (%, negative = inhibition) at 10uM” value came to 14.4%. Next, `COCCOC(=O)c1c(NC(=O)COC(=O)Cc2cccc(OC)c2)sc(C(N)=O)c1C`: 13.8%; `O=C(/C=C/c1ccccc1)Nn1cnnc1`: 3.03%. As for `COc1ccccc1N1C(=O)CC(Nc2ccc(N3CCOCC3)cc2)C1=O` (stereo not drawn), the “hERG current change (%, negative = inhibition) at 10uM” value is reported as 18.6%. Next, `COC(=O)c1sccc1NC(=O)Nc1ccccc1F`: 13.4%; `COC(=O)/C(=N\Nc1ccc(Cl)cc1)Sc1nnc(-c2ccc(OC)cc2)n1C`: -0.174%. `CCOC(=O)C(CCCCOc1ccc([N+](=O)[O-])cc1)C(=O)OCC`: the “hERG current change (%, negative = inhibition) at 10uM” value was -54.8%. For `Cc1cc(C)n(-c2ncnc3sc(C)c(C)c23)n1` the value was -1.44%; for `O=C(Nc1ccc(F)cc1)NC1(C(=O)NCc2ccc3c(c2)OCO3)CCCCC1`, 10.7%; for `CCN(CC)C(=O)C(=O)Nc1cccc(Br)c1`, 8.53%. Next, `O=c1[nH]c2ccccc2c(=O)n1Cc1ccccc1`: 21.9%; `C/C(=N\NC(=O)c1ccc(=O)[nH]n1)c1cccnc1`: 6.79%.

In the case of `Cn1c(=O)[nH]c(=O)c2c1nc(CN(Cc1ccccc1)Cc1ccccc1)n2CCN1CCOCC1`, the “hERG current change (%, negative = inhibition) at 10uM” value is reported as -16.6%. With `CCOc1ccc(C(=O)CCC(=O)NC2=NCCS2)cc1`, the “hERG current change (%, negative = inhibition) at 10uM” value turned out to be 6.73%. Regarding `Cc1cccc(CCNC(=O)CCS(=O)(=O)c2ccc(Br)cc2)c1`, the “hERG current change (%, negative = inhibition) at 10uM” value came out at 8.8%. Regarding `CCCCNC(=O)CCCCCn1c(=O)[nH]c2cc(C(=O)OC)ccc2c1=O`, the “hERG current change (%, negative = inhibition) at 10uM” value was determined as 10.2%. For `Cc1cccc(S(=O)(=O)Nc2ccc(C)c3c2OC(C)(C)C3)c1` the value was -14.5%; for `O=C(CSc1n[nH]c(-c2ccncc2)n1)Nc1ccccc1`, 4.93%. For `Cc1cc(C)c2c(c1)NC(=O)C2(O)CC(=O)c1cccs1` (stereo not drawn) the value was -1.5%; for `O=C(CSc1nnc2sc3ccccc3n12)N1CCN(c2ccccc2)CC1`, -25.8%; for `O=C(NNC(=O)c1ccccc1-n1cccc1)c1ccccc1`, -18.3%. For `CC1CN(C(=O)COC(=O)c2cccs2)CC(C)O1` (stereo not drawn) the value was 21.5%; for `Cn1c(C(=O)OC(C(=O)NC(C)(C)C)c2cccnc2)cc2sccc21` (stereo not drawn), 8.92%; for `COc1cccc2c(C)nc(Nc3nc(CSc4nnc(C)s4)cc(=O)[nH]3)nc12`, 7.84%. For the compound `COc1cccc(-c2cc(C(=O)NCCN3CCOCC3)no2)c1`, the “hERG current change (%, negative = inhibition) at 10uM” value is recorded as -8.92%. For `Cc1cc(NCCCN2CCOCC2)n2ncc(-c3ccccc3)c2n1` the value was -21%. For `COC(=O)c1cc(C#N)c(N(C)Cc2ccccc2)nc1C` the value was 8.44%. For the compound `Cc1ccc2nc3c(cc(C#N)c(=O)n3-c3nccs3)c(=O)n2c1`, the “hERG current change (%, negative = inhibition) at 10uM” value was 2.51%. With `CCOc1ccc(N(CC(=O)N2CCOCC2)S(=O)(=O)c2ccc(F)cc2)cc1`, the “hERG current change (%, negative = inhibition) at 10uM” value is -16.7%. For the compound `COc1ccc(/C=N/NC(=O)CC(=O)NCc2cccnc2)cc1`, the “hERG current change (%, negative = inhibition) at 10uM” value is -0.491%. For the compound `COc1ccc(C(=O)N2CCNC(=O)C2CC(=O)Nc2ccc(C)cc2)cc1` (stereo not drawn), the “hERG current change (%, negative = inhibition) at 10uM” value is reported as 12.6%. Next, `O=C(O)c1ccccc1-c1ccccc1C(=O)Nc1ccccc1Br`: 17.2%. Next, `CN(C)C(=O)Cn1c(SCC(=O)N2CCCc3ccccc32)nc2ccccc21`: -7.08%; `CC(C)N1CCN(Cc2ccccc2C(F)(F)F)CC1CCO` (stereo not drawn): -17.1%; `C=CCNC(=S)NNC(=O)COc1ccc(Br)cc1`: 10.2%. For `Cc1cccc(C(=O)NC(NC(=S)Nc2ccc(S(N)(=O)=O)cc2)C(Cl)(Cl)Cl)c1` (stereo not drawn) the value was 19.7%.

On to `O=C(NCCCC1CCCC1)C1CCC(=O)N(Cc2cccc(C(F)(F)F)c2)C1` (stereo not drawn), for which the “hERG current change (%, negative = inhibition) at 10uM” value is -9.84%. As for `COc1ccc(-c2cc(C)no2)cc1S(=O)(=O)N1CCN(c2ccccn2)CC1`, the “hERG current change (%, negative = inhibition) at 10uM” value is recorded as -63.7%.

On to `CCC(C)[C@H]1CN=C(N)N1CCCc1cc(OC)c(OC)c(OC)c1` (stereo partly drawn), for which the “hERG current change (%, negative = inhibition) at 10uM” value came out at 10.1%. For `COC(=O)C(NC(=O)c1ccco1)(Nc1nc(C)cs1)C(F)(F)F` (stereo not drawn) the value was -8.46%; for `Cc1ccc(CN(C(=O)N2CCN(C)CC2)S(=O)(=O)c2ccc(C)cc2)cc1`, 3.34%. For `CCCCn1c(N)c(N(CCOC)C(=O)CN2c3ccccc3CC2C)c(=O)[nH]c1=O` (stereo not drawn) the value was 16.8%. For `Cc1cc2c(cc1C)NC(c1c(C)n(C)n(-c3ccccc3)c1=O)C1=C(CC(C)(C)CC1=O)N2` (stereo not drawn) the value was -8.97%.
